Measurements from the supplement of paper PMC4967469.
IC50 is the fitted dose that halves viability relative to control wells, and lower means more sensitive; fits outside the tested doses are given as limits. AUC is the area under the same curve over the 256-fold range up to the top dose, as a fraction; the more sensitive the line, the further below 1. Where the top dose is marked as inferred, it was calculated from the reported fits.

Assays:
Assay in all cases: Viability of human cancer cell lines after 72 h of drug (GDSC screen)
Tipifarnib = compound: Cn1cncc1[C@@](N)(c1ccc(Cl)cc1)c1ccc2c(c1)c(-c1cccc(Cl)c1)cc(=O)n2C [Tipifarnib]; settings: top dose 16 µM; top dose inferred
Experimental: (§1)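 Human cancer cell lines in 384-well plates, medium with 10% serum, drug for 72 h over a 256-fold dose range (nine 2-fold or five 4-fold steps up to the top dose). Adherent lines were fixed and stained with the nucleic acid dye Syto60, suspension lines read with resazurin; signal relative to control wells, capped at 0 and 100%. One two-parameter sigmoid per drug and line, fitted in a mixed model over all curves with the slope shared within a line.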

NG-25 = compound: CCN1CCN(Cc2ccc(NC(=O)c3ccc(C)c(Oc4ccnc5[nH]ccc45)c3)cc2C(F)(F)F)CC1 [NG-25]; settings: top dose 10.24 µM; top dose inferred
Experimental: as §1

GSK-1904529A = compound: CCc1cc(Nc2nccc(-c3c(-c4ccc(OC)c(C(=O)Nc5c(F)cccc5F)c4)nc4ccccn34)n2)c(OC)cc1N1CCC(N2CCN(S(C)(=O)=O)CC2)CC1 [GSK-1904529A]; settings: top dose 1.024 µM; top dose inferred
Experimental: as §1

PFI-1 = compound: COc1ccccc1S(=O)(=O)Nc1ccc2c(c1)CN(C)C(=O)N2 [PFI-1]; settings: top dose 10 µM; top dose inferred
Experimental: as §1

Row | Cell Line | AUC (Tipifarnib) | IC50 (Tipifarnib) [µM] | AUC (NG-25) | IC50 (NG-25) [µM] | AUC (GSK-1904529A) | IC50 (GSK-1904529A) [µM] | AUC (PFI-1) | IC50 (PFI-1) [µM]
1 | Mewo (melanoma, adherent) | 0.613 | 2.18 | 0.977 | > 10.2 | 0.974 | > 1.02 | 0.865 | > 10
2 | MDA-MB-231 (breast, adherent) | 0.759 | 5.91 | 0.971 | > 10.2 | 0.944 | > 1.02 | 0.815 | 5.91
3 | MDA-MB-436 (breast, adherent) | 0.721 | 5.05 | 0.926 | > 10.2 | 0.867 | > 1.02 | 0.911 | > 10
4 | EFO-21 (ovary, adherent) | 0.624 | 2.56 | 0.886 | > 10.2 | 0.969 | > 1.02 | 0.827 | > 10
5 | HSC-4 (head and neck, adherent) | 0.807 | 11.7 | 0.926 | > 10.2 | 0.975 | > 1.02 | 0.811 | 7.64
6 | TOV-21G (ovary, adherent) | 0.985 | > 16 | 0.978 | > 10.2 | 0.985 | > 1.02 | 0.887 | > 10
7 | SCC-25 (head and neck, adherent) | 0.745 | 5.59 | 0.794 | 5.45 | 0.969 | > 1.02 | 0.912 | > 10
8 | SNU-182 (liver, adherent) | 0.806 | 8.6 | 0.917 | > 10.2 | 0.977 | > 1.02 | 0.927 | > 10
9 | HT-3 (cervix, adherent) | 0.925 | > 16 | 0.97 | > 10.2 | 0.987 | > 1.02 | 0.823 | 6.01
10 | RC-K8 (B-cell lymphoma, suspension) | 0.918 | > 16 | 0.921 | > 10.2 | 0.992 | > 1.02 | 0.991 | > 10
11 | ChaGo-K-1 (non-small cell lung carcinoma, adherent) | 0.571 | 1.61 | 0.923 | > 10.2 | 0.944 | > 1.02 | 0.942 | > 10
12 | LN-405 (glioma, adherent) | 0.913 | > 16 | 0.977 | > 10.2 | 0.979 | > 1.02 | 0.932 | > 10
13 | HuCCT1 (biliary tract, adherent) | 0.646 | 2.67 | 0.832 | 7.64 | 0.971 | > 1.02 | 0.823 | 6.78
14 | LC-1-sq (lung squamous cell carcinoma, adherent) | 0.778 | 7.65 | 0.959 | > 10.2 | 0.983 | > 1.02 | 0.881 | > 10
15 | CAMA-1 (breast, adherent) | 0.875 | > 16 | 0.93 | > 10.2 | 0.955 | > 1.02 | 0.896 | > 10
16 | TMK-1 (stomach, adherent) | 0.767 | 6.3 | 0.915 | > 10.2 | 0.97 | > 1.02 | 0.915 | > 10
17 | LK-2 (lung squamous cell carcinoma, adherent) | 0.493 | 0.957 | 0.923 | > 10.2 | 0.986 | > 1.02 | 0.91 | > 10
18 | CAL-33 (head and neck, adherent) | 0.696 | 3.56 | 0.948 | > 10.2 | 0.986 | > 1.02 | 0.878 | > 10
19 | G-402 (soft tissue, adherent) | 0.576 | 1.73 | 0.798 | 6.87 | 0.921 | > 1.02 | 0.811 | 7.66
20 | MG-63 (osteosarcoma, adherent) | 0.568 | 1.58 | 0.98 | > 10.2 | 0.961 | > 1.02 | 0.788 | 5.14
21 | NCI-H2085 (lung adenocarcinoma, adherent) | 0.754 | 5.79 | 0.882 | > 10.2 | 0.946 | > 1.02 | 0.94 | > 10
22 | NCI-H596 (lung adenocarcinoma, adherent) | 0.586 | 1.84 | 0.962 | > 10.2 | 0.98 | > 1.02 | 0.876 | > 10
23 | SW1088 (glioma, adherent) | 0.803 | 10.9 | 0.955 | > 10.2 | 0.977 | > 1.02 | 0.88 | > 10
24 | OSC-20 (head and neck, adherent) | 0.542 | 1.33 | 0.942 | > 10.2 | 0.977 | > 1.02 | 0.877 | > 10

Row | Cell Line | AUC (Tipifarnib) | IC50 (Tipifarnib) [µM] | AUC (NG-25) | IC50 (NG-25) [µM] | AUC (GSK-1904529A) | IC50 (GSK-1904529A) [µM] | AUC (PFI-1) | IC50 (PFI-1) [µM]
25 | DK-MG (glioma, adherent) | 0.975 | > 16 | 0.9 | > 10.2 | 0.978 | > 1.02 | 0.814 | 9.25
26 | HCC-827 (lung adenocarcinoma, adherent) | 0.808 | 9.85 | 0.968 | > 10.2 | 0.94 | > 1.02 | 0.973 | > 10
27 | OSC-19 (head and neck, adherent) | 0.75 | 5.42 | 0.91 | > 10.2 | 0.964 | > 1.02 | 0.835 | 6.93
28 | SUIT-2 (pancreas, adherent) | 0.556 | 1.43 | 0.698 | 2.38 | 0.965 | > 1.02 | 0.863 | 9.32
29 | SW1710 (bladder, adherent) | 0.44 | 0.681 | 0.791 | 4.78 | 0.956 | > 1.02 | 0.819 | 5.9
30 | IHH-4 (thyroid, semi-adherent) | 0.143 | 0.11 | 0.875 | 6.76 | 0.991 | > 1.02 | 0.864 | 6
31 | DMS-273 (small cell lung carcinoma, adherent) | 0.403 | 0.534 | 0.741 | 3.28 | 0.929 | > 1.02 | 0.976 | > 10
32 | CAL-27 (head and neck, adherent) | 0.564 | 1.5 | 0.958 | > 10.2 | 0.98 | > 1.02 | 0.77 | 3.87
33 | HO-1-u-1 (head and neck, adherent) | 0.807 | 7.81 | 0.934 | > 10.2 | 0.981 | > 1.02 | 0.899 | > 10
34 | MCF7 (breast, adherent) | 0.258 | 0.196 | 0.979 | > 10.2 | 0.978 | > 1.02 | 0.824 | 6.24
35 | SK-CO-1 (large intestine, adherent) | 0.807 | 7.61 | 0.974 | > 10.2 | 0.988 | > 1.02 | 0.96 | > 10
36 | H2795 (mesothelioma, adherent) | 0.444 | 0.706 | 0.869 | 9.24 | 0.982 | > 1.02 | 0.843 | 6.91
37 | NCI-H1781 (lung adenocarcinoma, adherent) | 0.772 | 6.17 | 0.912 | > 10.2 | 0.985 | > 1.02 | 0.985 | > 10
38 | YAPC (pancreas, adherent) | 0.899 | > 16 | 0.982 | > 10.2 | 0.985 | > 1.02 | 0.983 | > 10
39 | D-542MG (glioma, adherent) | 0.624 | 2.38 | 0.963 | > 10.2 | 0.959 | > 1.02 | 0.893 | > 10
40 | HEC-1 (endometrium, adherent) | 0.816 | 8.45 | 0.987 | > 10.2 | 0.98 | > 1.02 | 0.908 | > 10
41 | HTC-C3 (thyroid, adherent) | 0.699 | 3.9 | 0.838 | 8.17 | 0.977 | > 1.02 | 0.805 | 5.78
42 | P12-ICHIKAWA (T-cell lymphoblastic leukaemia, suspension) | 0.851 | 8.23 | 0.934 | > 10.2 | 0.994 | > 1.02 | 0.966 | > 10
43 | MHH-ES-1 (Ewing sarcoma, adherent) | 0.685 | 3.28 | 0.672 | 1.91 | 0.977 | > 1.02 | 0.805 | 4.96
44 | ABC-1 (lung adenocarcinoma, adherent) | 0.579 | 1.72 | 0.945 | > 10.2 | 0.969 | > 1.02 | 0.895 | > 10
45 | FU97 (stomach, adherent) | 0.673 | 3.09 | 0.931 | > 10.2 | 0.951 | > 1.02 | 0.746 | 3.26
46 | RT4 (bladder, adherent) | 0.755 | 5.67 | 0.707 | 2.55 | 0.983 | > 1.02 | 0.937 | > 10
47 | OE21 (oesophagus, adherent) | 0.629 | 2.59 | 0.949 | > 10.2 | 0.966 | > 1.02 | 0.717 | 3.28
48 | HCC70 (breast, adherent) | 0.514 | 1.09 | 0.812 | 5.38 | 0.987 | > 1.02 | 0.969 | > 10
